Reference: the supplement of paper PMC11417369
The other results are listed elsewhere or left out.

These sequences were tested on PfAP2-HC AP2 domain (GST-tagged) (assay: gcPBM binding intensity (ln(normalized median fluorescence intensity)); higher = stronger DNA binding).
In short: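 In this array assay, P. falciparum DNA-binding domains with a GST tag, expressed in E. coli, were applied for 1 h to primer-extended double-stranded 36-bp intergenic genomic probes and negative controls on an Agilent 4 × 180k array. Bound protein was visualised with Alexa488 anti-GST antibody at 488 nm. Binding intensity is the highest Masliner-normalised natural-log median intensity across replicate spots of either probe orientation.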

In order of rising “gcPBM binding intensity (ln)” value:
1. TTTGTTTTTATTTACACATGCAAAAAAAAAAAAAAA [TGCATGCA_site655]  9.14
2. TATTATTATTATTATTTTAAAAGAAATAAAAATATG [XGTACX_negctrl_site119]  9.19
3. TTTTTTTTTTCATTCACACAAAAAAAAAAAATTTAT [CACACA_site5921]  9.26
4. TAAATCATTTATTAAGTGCAATATTCTTTTTGAGAT  9.34
5. TATTTCGTAATTTAATAATATACAAGAAATATATAT [XGTACX_negctrl_site143]  9.4
6. ATATATATATATATATCATTTATTTAAAAATTTTTT [TGCATGCA_negctrl_site228]  9.42
7. ACTAATATTTTATAAAGTACAAATTAATAAAATTCA [XGTACX_site5817]  9.42
8. TAAAAACATTTAAATTGTACGGAAATAAAAATTTTT [XGTACX_site8225]  9.46
9. GAAGATATGTAAAATTGTACATATTATTTTATTTTA [XGTACX_site5302]  9.47
10. TTAATTTTTTTTTTTTGTACTCATATGTAATTCATC [XGTACX_site3071]  9.51
11. AAGATAAACTTTTTTAATTAATTTAATTTTTTTTTT [GTGCAC_negctrl_site386]  9.51
12. TTATAATAGTTAATATGTACATATTTAATAAATAAT [XGTACX_site3183]  9.51
13. TTTTAATTTTGTTGTTGTACAAATAACATGTGAGGG [XGTACX_site4401]  9.53
14. ATATTAAAATATAATCGTACAATTAAATTTTTTTTT [XGTACX_site2739]  9.54
15. AAGTATGGAAAGGAATATAAATTAATACTTTCATTG [XGTACX_negctrl_site131]  9.55
16. GGAAACTAAAGGAATAAAACTATGGAAATTAATTAA [CACACA_negctrl_site1647]  9.55
17. TGTTAACTTAAAAAAATACCTACGGAAAAATCACAA [TGCATGCA_negctrl_site433]  9.56
18. ATTCAAAATTATAGGTGTACGTATTTTTTTTTTTTT [XGTACX_site7177]  9.59
19. GTCTAAAAATAAAAAGTGCATTTGTTTAATATTTTG  9.6
20. AAAAGTTTAAGTTTTCGAAAATTTACCAAAAAAAAA [CACACA_negctrl_site1644]  9.6
21. TAAATTTATAAATCACGTACATATTTATTTATATTT [XGTACX_site4532]  9.61
22. AAAGGTTCATAAAAATGTACATAATTATTTACATGT [XGTACX_site2722]  9.62
23. TATGTGTATAATAAAAGTACATATATTATTATATAA [XGTACX_site8556]  9.63
24. ATTGACGTCATATAAACATGCACATTTTGGATGTTT [TGCATGCA_site985]  9.63
25. TTTTGTAGATATGACTGTACATATTTTATACATAAC [XGTACX_site971]  9.64
26. TCATATAATCAAATATGTACATATTTTCAATTGAAT [XGTACX_site6831]  9.64
27. TACAAAAAGAATGAAAAATATATAATAAAAATAAAA [XGTACX_negctrl_site159]  9.65
28. TTTTACACTTTTTTTTGTACACACTAAAAAGATTAA [XGTACX_site8407]  9.65
29. TAAAATAAGTTAAAAAGTACATAATTATAATAAATA [XGTACX_site8108]  9.66
30. CTGATCCACATTTATACACACCTCGGTTTGTAGAGA [CACACA_site4393]  9.67
31. TTTTTTTTAAATTGTGGTACACAAATTCATATATAT [XGTACX_site8944]  9.67
32. TATTTTATCATTTTTTTTATGTCTTTATTTCACTTG [CACACA_negctrl_site1398]  9.68
33. ATAAATAAGAAAAATTGTACAATATTTTTTAGGATA [XGTACX_site3163]  9.69
34. TACAAAATACAAAAATGTACATAAAAATTTATAAAA [XGTACX_site6861]  9.69
35. CAAATCATATATAGCACACAAATTCTTTATTATTAT [CACACA_site2815]  9.71
36. TAATTTTCATAATTTTGTACTTAACGTTTTACCTTG [XGTACX_site8048]  9.72
37. TACTATTTAAAATATGAACACACATTATTTGTTTTA [CACACA_site8870]  9.72
38. ATATTTATTTAATGAACACACGATATATTATTTTAT [CACACA_site1602]  9.72
39. GTCATATTATTATTACGTACTTAAATATATAATATA [XGTACX_site3405]  9.73
40. ATATAAATATTAAATACACACATTTTTGATTAGGTT [CACACA_site7461]  9.73
41. AAGACAACATAAATATGTACATATATTTATTATTTT [XGTACX_site1792]  9.74
42. ATAATTTCATAATACGTGCACATAATATATAAAAAA  9.74
43. TTATTTATTTTTTATACACACAATTATCTTTTTAAG [CACACA_site6162]  9.75
44. AAAATATATAATATTTGTACATATTGATGGCAACAG [XGTACX_site6454]  9.76
45. TAGAATTAAGTTATTGCACACAGGAAAAGTTTCATA [CACACA_site1634]  9.77
46. ACAATGAAATATTCATGTACATATAAATAATAGTGT [XGTACX_site3762]  9.77
47. TATATATATATATTGACACACATGTATTTCAATATT [CACACA_site2832]  9.79
48. TATAAGACATGATATATACACACCTTGTTTTAATTT [CACACA_site2266]  9.79
49. CACTTCATAAAAATTGCACACATATAATAATGTACA [CACACA_site8692]  9.79
50. ATTAAAACAAATATGTGTACATAAAAATATATATAT [XGTACX_site8394]  9.8
51. AGATGATATAATGGCACACAAATATTTTATTATAAA [CACACA_site3553]  9.8
52. TAATATGTATATAAAAGTACAGACGATTATAATTAT [XGTACX_site173]  9.81
53. TCTTCGAAACTATCACTCTCACAATTCATTTATTTT [TGCATGCA_negctrl_site156]  9.82
54. AATAAATAAAAAATTACACACATATTTATAAATATA [CACACA_site7584]  9.83
55. AGAATGGATTAGCTAGCACACACAAAAAAAAAAAAA [CACACA_site8995]  9.84
56. TGATTGTATTAAAATGCACACATATCAAGAGGAATT [CACACA_site7985]  9.85
57. ATATGAATATATATATGTACTAATTAGTAGTTTACG [XGTACX_site6273]  9.85
58. AACACATAAAAAAGGTGTACCATAAAATATACATAC [XGTACX_site4478]  9.86
59. AAGAAAAAAAAAATTACACACTGCGCAGATACACAA [CACACA_site1289]  9.86
60. ATATAGAATATATTAACATGCAATAAGTAAAGGGGG [TGCATGCA_site1022]  9.87
61. ATATACATTAAATGAACACACATAAATAAATTACAT [CACACA_site2852]  9.89
62. AAAATGATAATACCAAGTACACATATGAAAAATACA [XGTACX_site6763]  9.91
63. CATATAATAAAAAATGTACACACATAAGAAAATTTA [CACACA_site8943]  9.92
64. CTCATTTTTGTACAGGTGCACTTATCGTTACACTAT  9.93
65. ATATAATTTGATGGTTAACACACATATATATTATAT [CACACA_site8775]  9.93
66. AATAAAAATATATCCACACACATATATATATATGTA [CACACA_site576]  9.95
67. GTGTTTTTATGTGAATGTACATATTTACTATCACAC [XGTACX_site2388]  9.97
68. ATATACACATTAATAACACACAATATGATAACAAAT [CACACA_site7670]  10
69. ATATATATATGTAAGAGTACACAAAAATATGTATGT [XGTACX_site4335]  10
70. AGAAATTTACAAATACGTACACACATATATATATAT [XGTACX_site3141]  10
71. CTGTGTTTTGGTTGTACACACGCTACATTATATATT [CACACA_site5487]  10.1
72. AAAGTTTTTATAAAAAAAAAAATAAATACCATATAT [XGTACX_negctrl_site113]  10.1
73. AAAAGAAAAAAAAGTACACACATGTATATTAATCGT [CACACA_site2528]  10.1
74. CACAAAAATAAATATAAACACACAATAAATAAATAA [CACACA_site8197]  10.1
75. TGTTTTCCCTTTAGTGTGCACGTATTTCTATTAACA [GTGCAC_site9847]  10.1
76. CACATACCTATATACACACACAAAATAATAAAATAA [CACACA_site7150]  10.2
77. TAAATTAAAAGACACACACACAAAAAAAAAAAAAAA [CACACA_site7131]  10.2
78. TAAATATAATAAGAACAAACAAAATAGTACAATATA [TGCATGCA_negctrl_site364]  10.2
79. TGGTAATCCACATACACACACACATACACATATATA [CACACA_site2727]  10.3
80. AAAAAATAAATAAATACACACAAATATATATATATA [CACACA_site2543]  10.3
81. TCATAACAACTTTGTGTGCACATAAAACATGTATAT  10.3
82. TAAAATAATAAAACAACACACAAATAGTTAAAATAG [CACACA_site1680]  10.3
83. GTGCATAAATCATACACACACACATATATAAATATA [CACACA_site7188]  10.7
84. AATCCTTACGAACACACACACACGAATAAATAAAAA [CACACA_site6363]  10.8
85. ATATATATATATATTCCACACACACCCAAAAAAAAA [CACACA_site9215]  10.8
86. CACACGCACGAACACACACACACACGCGCACATATA [CACACA_site6304]  11
87. CCCCCCCACGAACACACACACATACATACCACATAT [CACACA_site7149]  11
88. TACAGATACGGACACACACACACACCCAGACAAAAA [CACACA_site4432]  11
89. CACAAAAATAAACACACACACATATATATTTATTAT [CACACA_site5923]  11.1
